Consider one molecule from US20230083670A1 (IMMUNEONCO BIOPHARMACEUTICALS SHANGHAI, published 2023).

The target in the assay is T1, CD47 on Jurkat cells (UniProt Q08722).
T1 construct: whole, on cells; also called CD47-expressing Raji cells
As to the kind of experiment: flow cytometry competition; blocks FITC-SIRPα-Fc (80 nM) on PD-L1- CD47+ Raji cells. The procedure:
The mixtures were added to a 96-well plate containing PD-L1⁻ or PD-L1⁺ CD47-expressing Raji cells, and the plate was incubated at 4° C. for 45 minutes.
Background: A flow cytometer gives signals particle by particle.

B1: IMM2520 (bispecific antibody, human IgG1, kappa)
heavy: not shown
light: DIQMTQSPSSLSASVGDRVTITCRASQDIINYLNWYQQKPGKAPKLLIYYTSRLHSGVPSRFSGSGSGTDFTFTISSLQPEDIATYYCQQGDTLPWTFGQGTKVEIKRTVAAPSVFIFPPSDEQLKSGTASVVCLLNNFYPREAKVQWKVDNALQSGNSQESVTEQDSKDSTYSLSSTLTLSKADYEKHKVYACEVTHQGLSSPVTKSFNRGEC
notes: SIRPαD1 mutant linked through the linker to the N-terminus of each heavy chain of IMM2515; also called recombinant fusion protein IMM2520; PD-L1×CD47 bispecific
Molecule B1 registered an IC50 of 128 nM.

The term IC50 denotes the point on the concentration scale where inhibition reaches its midpoint.
